Where a name gives a salt, the structure may show the parent alone. Out of some 1,300 compounds screened, about 40 (3%) showed activity. This is one part of the list.
Test system: Plasmodium falciparum NF54/iGP1_RE9H ulg8 stage V gametocytes
Test: gametocyte viability (luciferase signal relative to DMSO control) (% of DMSO control); higher = less gametocytocidal activity, active = 50 or less
Conditions: exposure time: 72 h
Method in brief: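 NF54/iGP1_RE9Hulg8 stage V gametocytes (day 12; ~2.5% gametocytemia, 3% hematocrit) in medium with 0.5% Albumax II were added to 96-well plates of nanolitre-spotted compounds (10 mM DMSO stocks), giving 10 µM or 1 µM, one well each. Plates were incubated 72 h at 37 °C. Then 90 µl was mixed with 10 µl D-luciferin (30 mg/ml) and luminescence was read on an IVIS Lumina II. Viability is relative to the mean of plate DMSO vehicle controls.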

Row | SMILES | gametocyte viability (concentration: 1 µM) | gametocyte viability (concentration: 10 µM)
1 | CCC(C)(CN(C)C)OC(=O)c1ccccc1 (configuration not stated) [Amyleine hydrochloride] | inactive: 103 | inactive: 95.8
2 | NC(=O)c1cccnc1 [Nicotinamide] | inactive: 85.7 | inactive: 82.8
3 | Cn1c(=O)c2c(ncn2CC(O)CO)n(C)c1=O (configuration not stated) [Diprophylline] | inactive: 76.5 | inactive: 87.9
4 | CNC1(C)C2CCC(C2)C1(C)C (configuration not stated) [Mecamylamine hydrochloride] | inactive: 93.8 | inactive: 94.3
5 | CC1=C(C(=O)O)N2C(=O)[C@@H](NC(=O)[C@H](N)c3ccc(O)cc3)[C@H]2SC1 [Cefadroxil] | inactive: 86.7 | inactive: 86.8
6 | C=CCN1CCCC1CNC(=O)c1cc2nn[nH]c2cc1OC (configuration not stated) [Alizapride HCl] | inactive: 82.2 | inactive: 84.7
7 | CC(C)(Oc1ccc(C2CC2(Cl)Cl)cc1)C(=O)O (configuration not stated) [Ciprofibrate] | inactive: 94.2 | inactive: 94.6
8 | Nc1ccc(S(N)(=O)=O)cc1 [Sulfanilamide] | inactive: 83.6 | inactive: 85.5
9 | CNCC[C@@H](Oc1cccc2ccccc12)c1cccs1 [(R)-Duloxetine hydrochloride] | inactive: 79.7 | inactive: 63.4
10 | CC(CCc1ccc(O)cc1)NCCc1ccc(O)c(O)c1 (configuration not stated) [Dobutamine hydrochloride] | inactive: 78.1 | inactive: 81.7
11 | CCC(C)(C)c1ccc(CC(C)CN2C[C@@H](C)O[C@@H](C)C2)cc1 (some centres not stated) [Amorolfine hydrochloride] | inactive: 79.2 | inactive: 71.3
12 | CC[C@]12CCCN3CCc4c(n(c5ccccc45)[C@@](O)(C(=O)OC)C1)[C@@H]32 [Vincamine] | inactive: 89.5 | inactive: 89
13 | Cc1ccc(O)c([C@H](CCN(C(C)C)C(C)C)c2ccccc2)c1 [Tolterodine tartrate] | inactive: 98.5 | inactive: 88
14 | CCCCOc1ccc(CC(=O)NO)cc1 [Bufexamac] | inactive: 87.9 | inactive: 94.5
15 | CC(=O)OC(C)C[N+](C)(C)C (configuration not stated) [Methacholine chloride] | inactive: 88.9 | inactive: 82.6
16 | C=CCc1ccccc1OCC(O)CNC(C)C (configuration not stated) [Alprenolol hydrochloride] | inactive: 88.9 | inactive: 88.7
17 | NC[C@H]1CC[C@H](C(=O)O)CC1 [Tranexamic acid] | inactive: 82.3 | inactive: 79.1
18 | O=C(O)c1cc(=O)c2c(OCC(O)COc3cccc4oc(C(=O)O)cc(=O)c34)cccc2o1 [Cromolyn disodium salt] | inactive: 96.7 | inactive: 93.2
19 | Cc1c(O)cccc1C(=O)N[C@@H](CSc1ccccc1)[C@H](O)CN1C[C@H]2CCCC[C@H]2C[C@H]1C(=O)NC(C)(C)C [Nelfinavir mesylate] | inactive: 90.7 | inactive: 70.6
20 | CCSc1ccc2c(c1)N(CCCN1CCN(C)CC1)c1ccccc1S2 [Thiethylperazine dimalate] | inactive: 83.3 | active: 32.4
21 | CN(C)CCC(c1ccccc1)c1ccccn1 (configuration not stated) [Pheniramine maleate] | inactive: 89.9 | inactive: 82.4

Row | SMILES | gametocyte viability (concentration: 1 µM) | gametocyte viability (concentration: 10 µM)
22 | O=P(O)(O)C(O)(Cc1cccnc1)P(=O)(O)O [Risedronic acid monohydrate] | inactive: 81.3 | inactive: 82.9
23 | CCN(CC)C(=O)N1CCN(C)CC1 [Diethylcarbamazine citrate] | inactive: 82 | inactive: 87.5
24 | CCN(CCCc1ccccc1)CCCc1ccccc1 [Alverine citrate salt] | inactive: 82.3 | inactive: 82
25 | Clc1ccccc1C(c1ccccc1)(c1ccccc1)n1ccnc1 [Clotrimazole] | inactive: 86.5 | inactive: 72.4
26 | Clc1ccc(COC(Cn2ccnc2)c2ccc(Cl)cc2Cl)cc1 (configuration not stated) [Econazole nitrate] | inactive: 92.6 | inactive: 83.2
27 | C=CC[N@@+]12CC[C@@]34c5ccccc5N5/C=C6/[C@H]7C[C@H]8[C@@]9(CC[N@@+]8(CC=C)C/C7=C/CO)c7ccccc7N(/C=C(/[C@@H](C[C@@H]31)/C(=C\CO)C2)[C@H]54)[C@@H]69 [Alcuronium chloride] | inactive: 82.4 | inactive: 80.3
28 | CCCC(C(=O)OCCN(CC)CC)(c1ccccc1)c1ccccc1 [Proadifen hydrochloride] | inactive: 84.8 | inactive: 93.4
29 | C=C1C(=O)O[C@H]2[C@H]1CC/C(C)=C/CC[C@@]1(C)O[C@@H]21 [Parthenolide] | inactive: 90.4 | inactive: 87.8
30 | CCCCOc1ccc(C(=O)CCN2CCCCC2)cc1 [Dyclonine hydrochloride] | inactive: 86.2 | inactive: 90.6
31 | CC(C)(C)CC(C)(C)c1ccc(OCCOCC[N+](C)(C)Cc2ccccc2)cc1 [Benzethonium chloride] | inactive: 82.1 | active: 9.32
32 | Cn1nnc2c(C(N)=O)ncn2c1=O [Temozolomide] | inactive: 86.9 | inactive: 88.1
33 | CC(C)(C)NC(=O)[C@H]1CC[C@H]2[C@@H]3CC[C@H]4NC(=O)C=C[C@]4(C)[C@H]3CC[C@]12C [Finasteride] | inactive: 81.6 | inactive: 69.2
34 | Nc1nc(N)c2nc(-c3ccccc3)c(N)nc2n1 [Triamterene] | inactive: 78.5 | inactive: 88.5
35 | CC(C)C(=O)c1c(C(C)C)nn2ccccc12 [Ibudilast] | inactive: 84.4 | inactive: 82.1
36 | OC(CCN1CCCC1)(c1ccccc1)C1CCCCC1 (configuration not stated) [Procyclidine hydrochloride] | inactive: 97.1 | inactive: 93.7
37 | CC(C)NCC(O)COc1cccc2[nH]ccc12 (configuration not stated) [Pindolol] | inactive: 87.7 | inactive: 88.8
38 | CC(CN(C)C)CN1c2ccccc2CCc2ccccc21 (configuration not stated) [Trimipramine maleate salt] | inactive: 83.5 | inactive: 87.1
39 | CC1(C)O[C@@H]2C[C@H]3[C@@H]4C[C@H](F)C5=CC(=O)C=C[C@]5(C)[C@H]4[C@@H](O)C[C@]3(C)[C@]2(C(=O)CO)O1 [Flunisolide] | inactive: 87.5 | inactive: 88.9
40 | C[C@H](CS)C(=O)N1CCC[C@H]1C(=O)O [Captopril] | inactive: 86.8 | inactive: 84
41 | CN(Cc1cc(Br)cc(Br)c1N)C1CCCCC1 [Bromhexine hydrochloride] | inactive: 86.9 | inactive: 80.8
42 | NCCc1ccc(O)c(O)c1 [Dopamine hydrochloride] | inactive: 81.2 | inactive: 91.8

Row | SMILES | gametocyte viability (concentration: 1 µM) | gametocyte viability (concentration: 10 µM)
43 | CC[C@H](c1ccc(O)cc1)[C@@H](CC)c1ccc(O)cc1 [Hexestrol] | inactive: 89.5 | inactive: 89
44 | Cc1c(Nc2ncccc2C(=O)O)cccc1C(F)(F)F [Flunixin meglumine] | inactive: 80 | inactive: 82.7
45 | CC1(C)O[C@@H]2C[C@H]3[C@@H]4C[C@H](F)C5=CC(=O)CC[C@]5(C)[C@H]4[C@@H](O)C[C@]3(C)[C@]2(C(=O)CO)O1 [Flurandrenolide] | inactive: 91.7 | inactive: 93.5
46 | NNC(=O)c1ccncc1 [Isoniazid] | inactive: 80.8 | inactive: 83.4
47 | COc1ccc(-c2ccc3cc(C(=O)O)ccc3c2)cc1C12CC3CC(CC(C3)C1)C2 [Adapalene] | inactive: 91.8 | inactive: 102
48 | CCN1CCCC1CNC(=O)c1cc(S(N)(=O)=O)ccc1OC (configuration not stated) [Sulpiride] | inactive: 90 | inactive: 90.4
49 | CCCCc1oc2ccccc2c1C(=O)c1cc(I)c(OCCN(CC)CC)c(I)c1 [Amiodarone hydrochloride] | inactive: 100 | inactive: 87.3
50 | O=C(O)c1cccnc1 [Niacin] | inactive: 89.8 | inactive: 83.7
51 | Cc1cccc(N(C)C(=S)Oc2ccc3ccccc3c2)c1 [Tolnaftate] | inactive: 87 | inactive: 90.5
52 | O=c1[nH]c(=O)n([C@H]2C[C@H](O)[C@@H](CO)O2)cc1I [Idoxuridine] | inactive: 78.3 | inactive: 83.7
53 | C#C[C@]1(O)CC[C@H]2[C@@H]3CCC4=Cc5oncc5C[C@]4(C)[C@H]3CC[C@@]21C [Danazol] | inactive: 79.2 | inactive: 80.5
54 | CCOc1ccc(Cc2nccc3cc(OCC)c(OCC)cc23)cc1OCC [Ethaverine hydrochloride] | inactive: 87.3 | inactive: 87
55 | O=C(Nc1ccc([N+](=O)[O-])cc1Cl)c1cc(Cl)ccc1O [Niclosamide] | inactive: 80.7 | inactive: 75.6
56 | CC12CC3CC(C)(C1)CC(N)(C3)C2 [Memantine Hydrochloride] | inactive: 99.8 | inactive: 96.7
57 | CN1CCCN=C1/C=C/c1cccs1 [Pyrantel tartrate] | inactive: 90 | inactive: 85.4
58 | CCC[C@@H]1C[C@@H](C(=O)N[C@@H]([C@H]2O[C@H](SC)[C@H](O)[C@@H](O)[C@H]2O)[C@@H](C)O)N(C)C1 [Lincomycin hydrochloride] | inactive: 94.7 | inactive: 97
59 | CCN(CC)CCNC(=O)c1cc(Br)c(N)cc1OC [Bromopride] | inactive: 104 | inactive: 97.1
60 | OC(CCN1CCCCC1)(c1ccccc1)c1ccccc1 [Pridinol methanesulfonate salt] | inactive: 83.5 | inactive: 87.9
61 | CCCCC(=O)N(Cc1ccc(-c2ccccc2-c2nnn[nH]2)cc1)[C@H](C(=O)O)C(C)C [Valsartan] | inactive: 81.5 | inactive: 81

— the supplement of paper PMC12297408
